16 compounds from the supplement of paper PMC4604168 (melanoma cell lines) can be followed below.

This is one part of the list. Many values rest on one well or one pass, so single values are uncertain.
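Also: cell number obtained by counting DAPI-stained nuclei in high-throughput microscope images with image analysis software, screen run in 1,536-well plates.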

In the test the test system is SkMel5. Description: cell count relative to DMSO control; melanoma cells; higher = more viable cells. Particulars: library dose: low library concentration; 72 h.
For `O=C(O)[C@@H]1[O][Sb](=[O])([O][Sb]2(=[O])[O][C@H]([C@H](O)CO)[C@H](O)[C@H](C(=O)O)[O]2)[O][C@H]([C@H](O)CO)[C@@H]1O` (stereo partly specified) [stibogluconate] + CN(C)S(=O)(=O)c1ccc2c(c1)/C(=C/c1cc3c([nH]1)CCCC3)C(=O)N2 [SU6656] (first compound 2 µM, partner dose 0.4 µM), the cell count came out at 89.6%.
`O=C(O)c1ccc2c(c1)nc(Nc1cccc(Cl)c1)c1ccncc12` + O=C1NC(=O)/C(=C/c2ccc(-c3ccc(F)cc3O)o2)S1 [AS252424] (first compound 0.4 µM, partner dose 1 µM): the cell count was found to be 83.9%.
With `O=C(Nc1cc(C(F)(F)F)cc(C(F)(F)F)c1)c1cc(Cl)ccc1O` + COc1cc2ncnc(Nc3ccc(Oc4ccccc4)cc3)c2cc1OC [SrcI1] (first compound 0.016 µM, partner dose 2 µM), the cell count was found to be 84.7%.
For `O=C(O)[C@@H]1[O][Sb](=[O])([O][Sb]2(=[O])[O][C@H]([C@H](O)CO)[C@H](O)[C@H](C(=O)O)[O]2)[O][C@H]([C@H](O)CO)[C@@H]1O` (stereo partly specified) [stibogluconate] + COc1cc(Nc2ncc(F)c(Nc3ccc4c(n3)NC(=O)C(C)(C)O4)n2)cc(OC)c1OC [Tamatinib] (first compound 2 µM, partner dose 0.4 µM), the cell count was found to be 91.7%.
In turn, `O=C(Nc1cc(C(F)(F)F)cc(C(F)(F)F)c1)c1cc(Cl)ccc1O` + CC(C)CCN1c2nc(Nc3cc(F)c(O)c(F)c3)ncc2N(C)C(=O)C1C [BID1870] (first compound 0.016 µM, partner dose 0.2 µM) registered a cell count of 99%.
Next, `O=C(Nc1cc(C(F)(F)F)cc(C(F)(F)F)c1)c1cc(Cl)ccc1O` + O=C(Nc1cccc(Cl)c1)Nc1ncc(CCNc2ncnc3ccsc23)s1 [SNS314] (first compound 0.016 µM, partner dose 0.0008 µM): 81.3%; `O=C(O)[C@@H]1[O][Sb](=[O])([O][Sb]2(=[O])[O][C@H]([C@H](O)CO)[C@H](O)[C@H](C(=O)O)[O]2)[O][C@H]([C@H](O)CO)[C@@H]1O` (stereo partly specified) [stibogluconate] + CCc1ccc(CCOc2ccc(CC3SC(=O)NC3=O)cc2)nc1 [pioglitazone] (first compound 2 µM, partner dose 2 µM): 114%; `O=C(O)[C@@H]1[O][Sb](=[O])([O][Sb]2(=[O])[O][C@H]([C@H](O)CO)[C@H](O)[C@H](C(=O)O)[O]2)[O][C@H]([C@H](O)CO)[C@@H]1O` (stereo partly specified) [stibogluconate] + O=C(O)C(=O)Nc1sc2c(c1C(=O)O)CCNC2 [TCS401] (first compound 2 µM, partner dose 1.66667 µM): 76.1%.
As for `O=C(O)c1ccc2c(c1)nc(Nc1cccc(Cl)c1)c1ccncc12` + CC1(C)NC(=O)N(c2ccc([N+](=O)[O-])c(C(F)(F)F)c2)C1=O [nilutamide] (first compound 0.4 µM, partner dose 1 µM), the cell count worked out at 110%.
Next, `O=C(O)c1ccc2c(c1)nc(Nc1cccc(Cl)c1)c1ccncc12` + Oc1nc(-c2ccc(C(F)(F)F)cc2)nc2c1CSCC2 [XAV939] (first compound 0.4 µM, partner dose 2 µM): 77.1%.
Next, `O=C(O)[C@@H]1[O][Sb](=[O])([O][Sb]2(=[O])[O][C@H]([C@H](O)CO)[C@H](O)[C@H](C(=O)O)[O]2)[O][C@H]([C@H](O)CO)[C@@H]1O` (stereo partly specified) [stibogluconate] + C[C@@H]1CCN(C(=O)CC#N)C[C@@H]1N(C)c1ncnc2[nH]ccc12 [CP690550] (first compound 2 µM, partner dose 1 µM): 103%.
`O=C(Nc1cc(C(F)(F)F)cc(C(F)(F)F)c1)c1cc(Cl)ccc1O` + CN(NC(=O)CC(=O)NN(C)C(=S)c1ccccc1)C(=S)c1ccccc1 [STA4783] (first compound 0.016 µM, partner dose 0.006 µM) returned a cell count of 96.2%.
Turning to `O=C(O)c1ccc2c(c1)nc(Nc1cccc(Cl)c1)c1ccncc12` + NC(=O)Nc1cc(-c2cccc(F)c2)sc1C(=O)N[C@H]1CCCNC1 [AZD7762] (first compound 0.4 µM, partner dose 0.02 µM), the cell count worked out at 114%.
Turning to `O=C(O)[C@@H]1[O][Sb](=[O])([O][Sb]2(=[O])[O][C@H]([C@H](O)CO)[C@H](O)[C@H](C(=O)O)[O]2)[O][C@H]([C@H](O)CO)[C@@H]1O` (stereo partly specified) [stibogluconate] + CC(C)(C)c1cnc(CSc2cnc(NC(=O)C3CCNCC3)s2)o1 [SNS-032] (first compound 2 µM, partner dose 0.01 µM), the cell count is 116%.
The result for `O=C(O)c1ccc2c(c1)nc(Nc1cccc(Cl)c1)c1ccncc12` + CO[C@@H]1[C@H](N(C)C(=O)c2ccccc2)C[C@H]2O[C@]1(C)n1c3ccccc3c3c4c(c5c6ccccc6n2c5c31)C(=O)NC4 [Midostaurin] (first compound 0.4 µM, partner dose 0.08 µM) reads 104%; that for `Cn1nnc2c(C(N)=O)ncn2c1=O` [temozolomide] + CN(NC(=O)CC(=O)NN(C)C(=S)c1ccccc1)C(=S)c1ccccc1 [STA4783] (first compound 2 µM, partner dose 0.006 µM), 88.6%.
